In PubChem BioAssay AID1768 (National Center for Advancing Translational Sciences (NCATS), 2009):
About 620 (0.23%) of roughly 270,000 compounds were called active. The inconclusive results got no clear call from the source; some entries with a clear call stand among them for comparison. Calls come from the whole dose curve; as a rule, active = well fitted inhibition curve with a large enough effect in the polarisation, with a control signal flat (not every such curve was filed as active); inconclusive = small, poorly fitted or top-dose-only effect, or effect the other way, or a change in a side signal; inactive = no such curve, though single readings can be large or run the other way; the % refers to the polarisation. Potencies beside an inconclusive call are fits to weak or partial responses and may not hold up. “Side channel” marks fits to a control or component signal instead of the main read-out.

biological target: Menin (Homo sapiens) (UniProt O00255); experiment: qHTS Assay for Inhibitors Targeting the Menin-MLL Interaction in MLL Related Leukemias: Competition With Texas Red Labeled MLL-derived Mutant Peptide; conditions: fluorescence polarization; FP activity change, negative = inhibition: at 61.6 µM (top of the series); for FP activity change, negative = inhibition: % of control where 0% means no effect
Potency is the fitted concentration of half-maximal effect; tags give direction and shape of the fitted curve or compound fluorescence and quenching.

Chain of UniProt O00255 (O00255 whole entry, looked up): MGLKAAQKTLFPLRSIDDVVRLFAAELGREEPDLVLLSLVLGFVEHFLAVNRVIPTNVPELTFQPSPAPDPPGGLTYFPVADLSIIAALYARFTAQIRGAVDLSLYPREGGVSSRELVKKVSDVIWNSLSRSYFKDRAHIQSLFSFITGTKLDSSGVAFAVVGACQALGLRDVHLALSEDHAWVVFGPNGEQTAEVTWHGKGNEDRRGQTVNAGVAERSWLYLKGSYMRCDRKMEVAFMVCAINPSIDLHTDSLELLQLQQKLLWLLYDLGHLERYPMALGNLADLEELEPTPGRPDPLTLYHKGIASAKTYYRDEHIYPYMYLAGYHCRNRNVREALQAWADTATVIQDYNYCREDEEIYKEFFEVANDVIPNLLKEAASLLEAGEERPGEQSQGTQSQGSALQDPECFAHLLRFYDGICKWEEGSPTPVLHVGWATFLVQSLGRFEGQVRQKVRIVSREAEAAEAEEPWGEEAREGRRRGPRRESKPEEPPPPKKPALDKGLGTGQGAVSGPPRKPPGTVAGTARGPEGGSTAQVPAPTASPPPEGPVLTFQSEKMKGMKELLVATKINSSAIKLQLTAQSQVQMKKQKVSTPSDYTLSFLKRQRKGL

Structure (SMILES) | Potency | FP activity change, negative = inhibition
CS(=O)(=O)c1ccc2nc(NC(=O)Cc3ccccc3)sc2c1 | inconclusive: 20 µM [quencher, side channel, partial curve] | –
C/C(=N\Nc1ccc(Cl)c(C(=O)O)c1)c1ccc(Br)s1 | inconclusive: 22.4 µM [quencher, side channel, partial curve] | –
O=C(N/N=C\c1ccc([N+](=O)[O-])s1)c1cncc(Br)c1 | inconclusive: 28.2 µM [quencher, side channel, single point] | –
Cn1c(=O)c2c(nc(N/N=C/c3ccc(OC(=O)c4ccco4)cc3)n2Cc2ccccc2)n(C)c1=O | – | inactive: 11.4%
O=C(O)c1cc2c(cc1NC(=O)c1ccccc1C(F)(F)F)OCCCO2 | inconclusive: 28.2 µM [quencher, side channel, single point] | –
CC1Cc2ccccc2N1C(=O)COc1nc2ccccc2nc1N1CCOCC1 (configuration not stated) | – | inactive: -5.31%
Cn1c(N)c(C(=O)COC(=O)CCCOc2ccc(Cl)cc2Cl)c(=O)n(C)c1=O | inconclusive: 28.2 µM [quencher, side channel, single point] | –
Clc1ccc(-n2nnc(-c3nccs3)n2)cc1Cl | inconclusive: 39.8 µM [inhibitor, single point] | –
Oc1c(CN2CCc3ccccc3C2)cc(Cl)c2cccnc12 | – | inactive: -13.2%
Cc1ccc(P(=O)(CSC(=N)N)c2ccc(C)cc2)cc1 | inconclusive: 12.6 µM [fluorescent, side channel, partial curve] | –
O=C(O)COc1cccc(-c2ocnc2-c2nc(-c3ccccc3)c(-c3ccccc3)o2)c1 | inconclusive: 31.6 µM [quencher, side channel, partial curve] | –
Cc1ccccc1N(C(=O)CNC(=O)c1ccco1)C(C(=O)NC1CCCC1)c1ccncc1 (configuration not stated) | inconclusive: 7.08 µM [quencher, side channel, single point] | –
O=C(CCCN1C(=O)/C(=C/c2ccccc2)SC1=S)Nc1cccc(O)c1 | inconclusive: 25.1 µM [quencher, side channel, single point] | –
O=C(NC1CCCC1)C(c1cccnc1)N(C(=O)c1csnn1)c1ccc(F)cc1 (configuration not stated) | inconclusive: 28.2 µM [quencher, side channel, single point] | –
O=C(Nc1ccccc1)c1ccc(-c2ccc([N+](=O)[O-])cc2)o1 | inconclusive: 25.1 µM [quencher, side channel, single point] | –
Cc1nnc(SCC(=O)NCc2ccco2)n1-c1ccc(F)cc1 | inconclusive: 39.8 µM [inhibitor, single point] | –
CSc1nc(N)c(C(=O)Nc2ccc([N+](=O)[O-])cc2)s1 | inconclusive: 25.1 µM [quencher, side channel, single point] | –
C#Cc1cccc(-n2nnc(C(=O)OC)c2-c2ccccc2)c1 | inconclusive: 14.1 µM [inhibitor, partial curve] | –
CCCCCCCn1c2c(c(=N)c3ccccc31)CCC2 | inconclusive: 3.55 µM [fluorescent, side channel, partial curve] | –

Structure (SMILES) | Potency | FP activity change, negative = inhibition
COc1ccc(Cl)cc1-n1c(=S)sc2c(=O)n(-c3ccc(F)cc3)c(SCC(=O)O)nc21 | inconclusive: 15.8 µM [quencher, side channel, partial curve] | –
CSCCC(NC(=O)c1ccccc1)C(=O)NC1CCCC1 (configuration not stated) | inconclusive: 3.55 µM [inhibitor, full curve] | –
CCOC(=O)c1cc(-c2ccccc2)sc1NC(=O)C(C)N1C(=O)NC(C)(c2ccc(Cl)cc2)C1=O (configuration not stated) | inconclusive: 3.55 µM [inhibitor, full curve] | –
Cc1ccc2[nH]c(C(=O)N3CCCC(Nc4ccc(F)cc4)C3)cc2c1 (configuration not stated) | inconclusive: 35.5 µM [quencher, side channel, single point] | –
COc1cccc(-c2nc(-c3ccccc3)nc(N3CCN(C)CC3)c2C#N)c1 | inconclusive: 3.16 µM [fluorescent, side channel, full curve, poor fit] | –
COc1ccc(CCN2C(=O)c3[nH]nc(-c4ccccc4O)c3C2c2cccc(Cl)c2)cc1 (configuration not stated) | inconclusive: 39.8 µM [inhibitor, single point] | –
CCOC(=O)c1nn(-c2ccccc2)c(=O)cc1SC1CCCCC1 | inconclusive: 5.01 µM [fluorescent, side channel, full curve] | –
O=C(Oc1ccc(-c2ccccc2)cc1)N1CCCCC1 | inconclusive: 10 µM [fluorescent, side channel, partial curve] | –
CSc1ccc(Cl)c(C(=O)NCCOc2cc(C)ccc2C(C)C)c1 | inconclusive: 7.94 µM [fluorescent, side channel, full curve] | –
CCOc1ccc(S(=O)(=O)n2cc(-c3ccc(F)cc3)c(N)n2)cc1 | inconclusive: 20 µM [quencher, side channel, partial curve] | –
O=c1c2c(nc3c(-c4ccccc4)c[nH]n13)CCC2 | – | inactive: 14.3%
COc1ccc(CC(=O)Nc2ccc(-c3noc(-c4ccccc4OC)n3)cc2)cc1 | inconclusive: 3.16 µM [quencher, side channel, partial curve] | –
Cc1ccc(C(=O)Nc2nc(COc3ccccc3)cs2)s1 | inconclusive: 20 µM [quencher, side channel, partial curve] | –
COc1ccc(OC)c(NC(=O)c2ccc3c(c2)C(=O)N(c2ccc(OC(C)=O)cc2)C3=O)c1 | inconclusive: 11.2 µM [fluorescent, side channel, partial curve] | –
COC(=O)/C(=N/Nc1ccccc1Cl)Sc1nnc(C(O)c2ccccc2)n1-c1ccccc1 (configuration not stated) | – | inactive: -8.19%
COc1cc(NC(=O)C2CC(=O)NC3=C2C(=O)CCC3)c(OC)cc1Cl (configuration not stated) | inconclusive: 7.94 µM [inhibitor, full curve] | –
CN1C(=O)NC(NS(=O)(=O)c2ccc(N)cc2)(C(F)(F)F)C1=O (configuration not stated) | – | inactive: -16.6%
CC1(C)CC2CC(C)(CN2Cc2c(O)ccc3ccccc23)C1 (configuration not stated) | inconclusive: 39.8 µM [inhibitor, single point] | –
